Source: PubChem BioAssay AID720542 (National Center for Advancing Translational Sciences (NCATS), 2013)
Screen size: about 360,000 compounds; about 740 (0.21%) were called active. Inconclusive means that the source gave no clear call. Such entries were picked first, then a sample of the others. The call rests on the fitted dose curve; in most records, active means well fitted inhibition curve with a large enough effect; inconclusive means small, poorly fitted or top-dose-only effect; inactive means no such curve, though single readings can be large or run the other way. No potency is given beside an inconclusive call; the fits are too rough.

The compounds below were run on Plasmodium falciparum AMA1 (3D7) - RON2 peptide interaction (assay: qHTS for Inhibitors of AMA1-RON; Towards Development of Antimalarial Drug Lead: Primary Screen). Conditions: AlphaScreen AMA1-biotinylated RON2 peptide binding; activity change, negative = inhibition: at 58.2 µM (top of the series) unless noted.
How it was run: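 AMA1 (3D7) with his tag at 25 nM final met compounds first, then biotinylated RON2 peptide at 25 nM; detection used donor plus acceptor beads, 10 µg/mL apiece, read by AlphaScreen after 30 min at room temperature.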
Further: nearly all actives have a fitted effect of over 45% in size.
Potency means the concentration at half of the fitted maximal effect; tags describe the fitted curve by direction and shape.
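Wherever activity change, negative = inhibition is given: 0% = vehicle wells and -100% = peptide control.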

SMILES | Potency | activity change, negative = inhibition
Nc1ccc(N=Nc2ccccc2)c(N)n1 | inconclusive [inhibitor, single point] | –
CCCC(=O)Nc1nnc(-c2ccc3c(c2)OCO3)s1 | – | inactive: -9.24%
CCSC1=NC(=O)/C(=C2/C=Cc3ccccc3N2CC)S1 | inconclusive [inhibitor, full curve] | –
CN1C(=O)NC(=O)[C@]2(Cc3ccccc3N3CCN(c4ccccc4)CC32)C1=O (stereo partly drawn) | – | inactive: -11.7%
Cc1cccc(NC(=O)c2ccc(N3CCCCC3)c([N+](=O)[O-])c2)n1 | inconclusive [inhibitor, single point] | –
c1ccc(OCCSc2ncnc3nc[nH]c23)cc1 | – | inactive: 2.69%
CCC(C)N1CCN(C(=O)c2cc(OC)cc(OC)c2)CC1 (stereo not drawn) | inconclusive [inhibitor, partial curve] | –
O=C(c1ccccc1NS(=O)(=O)c1cccc([N+](=O)[O-])c1)N1CCOCC1 | inconclusive [inhibitor, single point] | –
Cc1cc(N2C(=O)C(O)=C(C(=O)c3ccc(C)o3)C2c2cccs2)no1 (stereo not drawn) | inconclusive [inhibitor, single point] | –
NC(N)=N/N=C(\N=Nc1ccccc1)c1ccc(Cl)cc1 | inconclusive [inhibitor, full curve] | –
COc1cc(O)c(C(CCN2CCN(c3ccccc3)CC2)c2ccc(N(C)C)cc2)c(OC)c1 (stereo not drawn) | active: 11.2 µM | –
O=C(Cc1cccs1)NCc1ccncc1 | – | inactive: -12%
CC(=O)Nc1cccc(/C(C)=N/Nc2ccc(S(=O)(=O)Nc3ccccc3C(=O)O)cc2[N+](=O)[O-])c1 | inconclusive [inhibitor, partial curve, poor fit] | –
O=C(CN1CCCCC1)N/N=C/c1ccc(Cl)cc1 | – | inactive: 34.7%
CCCCOc1c(Cl)cc(CNC(C)(C)CO)cc1OCC | – | inactive: 0.467%
Clc1cccc(Cl)c1-c1nnc2cccc(Cl)n12 | inconclusive [inhibitor, full curve, poor fit] | –
CCOC(=O)NC(=S)Nc1ccc(C(C)(C)C)cc1 | – | inactive: 67.4%
OCc1ccc(O)c2ncccc12 | inconclusive [inhibitor, single point] | –
COc1ccc(C)cc1NC(=O)CSc1ccc(-c2ccccn2)nn1 | active: 20 µM | –
COc1ccc(C2CC(=O)N(c3ccccc3)C3=C2C(=O)CCC3)cc1 (stereo not drawn) | – | inactive: 10.4%
CN(C)c1ccc(/C=N/NC(=O)c2ccccc2Cl)cc1 | – | inactive: -12%
CC(=O)c1nn(-c2ccccc2)c(=Nc2ccccc2)cc1C | inconclusive [inhibitor, single point] | –
Cc1cc(C)c2oc(C(=O)N(Cc3cccs3)C3CCS(=O)(=O)C3)cc(=O)c2c1 (stereo not drawn) | – | inactive: 9.1%
CC1C(c2ccc3c(c2)OCO3)c2cc3c(cc2OC1N1CCOCC1)OCO3 (stereo not drawn) | inconclusive [inhibitor, partial curve] | –

SMILES | Potency | activity change, negative = inhibition
CCNc1ccccc1CP(=O)(c1ccccc1)c1ccccc1O (stereo not drawn) | inconclusive [inhibitor, single point] | –
O=C(O)COc1ccccc1/C=N/NC(=O)CN1CCN(S(=O)(=O)c2ccc(Br)cc2)CC1 | – | inactive: 7.35%
COc1ccc2cc(-c3[nH]ncc3CN3CCCN(c4ccccc4)CC3)ccc2c1 | inconclusive [inhibitor, single point] | –
CC1=CC(C)(C)N(C(=O)CSc2ncn[nH]2)c2ccccc21 | – | inactive: -1.73%
O=S(=O)(NCc1ccco1)c1ccccc1Br | – | inactive: -3.59%
CC[C@@H]1CC2=C(C(=O)OC(C)(C)O2)[C@@H](c2ccc(Cl)cc2)O1 | – | inactive: 0.705%
COc1ccc(N2CCN(C(=O)c3cc(C4CC4)nn3-c3ccccc3)CC2)cc1 | inconclusive [inhibitor, partial curve] | –
CO/N=C/c1ccc(N2CCN(C(=O)c3ccc(Cl)cc3Cl)CC2)c([N+](=O)[O-])c1 | inconclusive [inhibitor, partial curve] | –
O=C(NCC1=C(c2cccc3ccccc23)C[C@@H]2CC[C@H]1N2Cc1ccco1)c1ccc([N+](=O)[O-])cc1 | inconclusive [inhibitor, full curve] | –
COc1ccc(C(=O)Nc2ccc(Nc3ccccc3)cc2)cc1Br | inconclusive [inhibitor, partial curve] | –
COc1ccc(OCC(=O)Nc2ccccc2N2CCN(C)CC2)cc1 | – | inactive: -0.307%
CCN(CC)C(=O)Cn1cc(C(=O)C(=O)NCc2ccco2)c2ccccc21 | – | inactive: -7.67%
C/C(=N\N1CCN(C2c3ccccc3-c3ccccc32)CC1)c1cccnc1 | inconclusive [inhibitor, single point] | –
CN(C)c1ccc(CC2C(=O)Nc3ccccc32)cc1 (stereo not drawn) | inconclusive [inhibitor, partial curve] | –
COC(=O)C1=C(N)Oc2cc(C)n(Cc3cccnc3)c(=O)c2C1c1cccc(OC)c1OC (stereo not drawn) | – | inactive: 0%
CC(Oc1ccc(Cl)cc1Cl)c1nc(-c2ccc(NC(=O)c3cccnc3)cc2)no1 (stereo not drawn) | – | inactive: -10.3%
COc1ccc(C(c2c(O)ccc3ccccc23)N2CCOCC2)c(OC)c1 (stereo not drawn) | inconclusive [inhibitor, partial curve] | –
CN(C)CCNc1ncnc2c1sc1nc(N3CCOCC3)c3c(c12)CC(C)(C)SC3 | inconclusive [inhibitor, partial curve] | –
CCN(CC)c1ccc(C=Nc2cc(C)ccc2C)c(O)c1 | inconclusive [inhibitor, single point] | –
CC1=C(SCc2ccccc2)C(=O)c2ccccc2C1=O | inconclusive [inhibitor, single point] | –
O=C(OCC(=O)N1CCN(c2ccccc2)CC1)c1ccc(Cl)cc1[N+](=O)[O-] | inconclusive [inhibitor, single point] | –
O=C(CCn1cnc2ccccc2c1=O)Nc1ccc2c(c1)OCCO2 | inconclusive [inhibitor, single point] | –
Cc1cc(Cl)ccc1NNC(=O)c1cccs1 | active: 20 µM | –
C=CC1=C(C(=O)O)N2C(=O)C(NC(=O)Cc3ccccc3)C2SC1 (stereo not drawn) | – | inactive: 1.13%
